Measurements published in the supplement of paper PMC4967469.
IC50 is the fitted dose that halves viability relative to control wells, and lower means more sensitive; fits outside the tested doses are given as limits. AUC sums up the same curve from the lowest dose to the 256-fold higher top dose; the more sensitive the line, the further below 1. For some assays here: An inferred top dose is not printed in the source and was worked back from the curve model.

Tests used:
Assay in all cases: Viability of human cancer cell lines after 72 h of drug (GDSC screen)
[1] = compound: CN(C)Cc1cccc(N=C(c2ccccc2)c2c(O)[nH]c3cc(C(=O)N(C)C)ccc23)c1 [BIX02189]; settings: top dose 20 µM; top dose inferred
Method: (§1)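 Human cancer cell lines in 384-well plates, medium with 10% serum, drug for 72 h over a 256-fold dose range (nine 2-fold or five 4-fold steps up to the top dose). Adherent lines were fixed and stained with the nucleic acid dye Syto60, suspension lines read with resazurin; signal relative to control wells, capped at 0 and 100%. One two-parameter sigmoid per drug and line, fitted in a mixed model over all curves with the slope shared within a line.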

[2] = compound: O=C(c1ccc(C(=O)N2CCC(N3CCCC3)CC2)c(Nc2ccccc2)c1)N1CCC(N2CCCC2)CC1 [UNC1215]; settings: top dose 1 µM; top dose inferred
Method: as §1

[3] = compound: Cc1cnc(Nc2ccc(OCCN3CCCC3)cc2)nc1Nc1cccc(S(=O)(=O)NC(C)(C)C)c1 [TG101348]; settings: top dose 10.24 µM
Method: as §1

[4] = compound: COc1cccc2c1C(=O)c1c(O)c3c(c(O)c1C2=O)C[C@@](O)(C(=O)CO)C[C@@H]3O[C@H]1C[C@H](N)[C@H](O)[C@H](C)O1 [Doxorubicin]; settings: top dose 1.024 µM
Method: as §1

[5] = compound: C=CC(=O)Nc1cc(-n2c(=O)ccc3cnc4ccc(-c5ccc(NS(C)(=O)=O)cc5)cc4c32)ccc1C [BMX-IN-1 (QL-XII-61)]; settings: top dose 10 µM; top dose inferred
Method: as §1

[6] = compound: COC(=O)CNC(=O)C(=O)OC [Dimethyloxalylglycine]; settings: top dose 4000 µM; top dose inferred
Method: as §1

[7] = compound: COc1cccc2cc(-c3nc([C@H]4CC[C@H](C(=O)O)CC4)n4ncnc(N)c34)[nH]c12 [OSI-027]; settings: top dose 20 µM
Method: as §1

[8] = compound: C=CCNC1=C2C[C@@H](C)C[C@H](OC)[C@H](O)[C@@H](C)/C=C(\C)[C@H](OC(N)=O)[C@@H](OC)/C=C\C=C(/C)C(=O)NC(=CC1=O)C2=O [17-AAG]; settings: top dose 1 µM
Method: as §1

[9] = compound: Cc1cnc(Nc2ccc(F)cc2Cl)nc1-c1c[nH]c(C(=O)N[C@H](CO)c2cccc(Cl)c2)c1 [VX-11e]; settings: top dose 5.12 µM; top dose inferred
Method: as §1

[10] = compound: CCc1cc(-c2n[nH]c(C)c2-c2ccc3c(c2)OCCO3)c(O)cc1O [CCT018159]; settings: top dose 10 µM; top dose inferred
Method: as §1

[11] = compound: CS(=O)(=O)c1ccc(C(=O)Nc2ccc(Cl)c(-c3ccccn3)c2)c(Cl)c1 [Vismodegib]; settings: top dose 10 µM; top dose inferred
Method: as §1

Cell Line	AUC [1]	IC50 [1]	AUC [2]	IC50 [2]	AUC [3]	IC50 [3]	AUC [4]	IC50 [4]	AUC [5]	IC50 [5]	AUC [6]	IC50 [6]	AUC [7]	IC50 [7]	AUC [8]	IC50 [8]	AUC [9]	IC50 [9]	AUC [10]	IC50 [10]	AUC [11]	IC50 [11]
RS4-11 (leukaemia, suspension)	0.866	15.3 µM	0.987	> 1000 nM	0.476	0.555 µM	0.321	21.3 nM	0.846	6.38 µM	0.195	34.5 µM	0.087	< 78.1 nM	0.941	> 1000 nM	0.924	> 5.12 µM	0.883	9.12 µM		
TE-10 (oesophagus, adherent)	0.972	> 20 µM	0.986	> 1000 nM	0.889	> 10.2 µM	0.614	131 nM	0.926	> 10 µM	0.642	612 µM	0.806	9940 nM	0.765	360 nM	0.966	> 5.12 µM	0.92	> 10 µM		
SU-DHL-8 (B-cell lymphoma, suspension)	0.9	> 20 µM	0.987	> 1000 nM	0.639	1.5 µM	0.35	25.4 nM	0.917	> 10 µM	0.401	137 µM	0.112	78.5 nM	0.98	> 1000 nM	0.728	1.35 µM	0.95	> 10 µM		
LB996-RCC (kidney, adherent)	0.977	> 20 µM	0.981	> 1000 nM	0.966	> 10.2 µM	0.508	67.5 nM	0.974	> 10 µM	0.197	26.3 µM	0.971	> 20000 nM	0.764	421 nM	0.98	> 5.12 µM	0.983	> 10 µM		
SCC-15 (head and neck, adherent)	0.964	> 20 µM	0.956	> 1000 nM	0.897	> 10.2 µM	0.656	202 nM	0.971	> 10 µM	0.69		0.569	2050 nM	0.85	> 1000 nM	0.958	> 5.12 µM	0.861	> 10 µM		
H2591 (mesothelioma, adherent)	0.884	> 20 µM	0.972	> 1000 nM	0.95	> 10.2 µM	0.705	291 nM	0.971	> 10 µM	0.195	22.5 µM	0.47	1010 nM	0.866	> 1000 nM	0.974	> 5.12 µM	0.927	> 10 µM		
SK-N-DZ (neuroblastoma, adherent)	0.983	> 20 µM	0.987	> 1000 nM	0.909	> 10.2 µM	0.878	1020 nM	0.982	> 10 µM	0.745	1250 µM	0.912	> 20000 nM			0.985	> 5.12 µM	0.855	7.79 µM	0.98	> 10 µM
SK-LU-1 (lung adenocarcinoma, adherent)	0.891	> 20 µM	0.978	> 1000 nM	0.811	7.33 µM	0.323	17.8 nM	0.936	> 10 µM	0.345	82.3 µM	0.57	2050 nM	0.46	47.2 nM	0.956	> 5.12 µM	0.879	> 10 µM		
NTERA-2 cl.D1 (testis, adherent)	0.948	> 20 µM	0.975	> 1000 nM	0.844	7.22 µM	0.137	4.68 nM	0.967	> 10 µM	0.273	56.9 µM	0.715	5020 nM			0.973	> 5.12 µM	0.848	7.34 µM	0.984	> 10 µM
DMS-53 (small cell lung carcinoma, adherent)	0.988	> 20 µM	0.972	> 1000 nM	0.979	> 10.2 µM	0.895	> 1020 nM	0.987	> 10 µM	0.481	222 µM	0.952	> 20000 nM			0.988	> 5.12 µM	0.953	> 10 µM	0.988	> 10 µM
ABC-1 (lung adenocarcinoma, adherent)	0.961	> 20 µM	0.979	> 1000 nM	0.913	> 10.2 µM	0.519	72.7 nM	0.958	> 10 µM	0.602	504 µM	0.338	402 nM			0.88	> 5.12 µM	0.98	> 10 µM	0.983	> 10 µM
ES3 (Ewing sarcoma, adherent)	0.901	> 20 µM	0.983	> 1000 nM	0.675	2.03 µM	0.471	53.1 nM	0.984	> 10 µM	0.63	581 µM	0.376	558 nM	0.817	598 nM	0.96	> 5.12 µM				
PL-21 (acute myeloid leukaemia, suspension)	0.799	11.5 µM	0.968	> 1000 nM	0.625	1.51 µM	0.784	514 nM	0.98	> 10 µM	0.46	191 µM	0.189	122 nM			0.772	2.31 µM	0.861	> 10 µM	0.973	> 10 µM
